Measurements from ChEMBL document CHEMBL1201862, “PubChem BioAssay data set” (2004).
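In this assay, cells in 96-well plates receive the compound at five concentrations for 48 hours. Endpoints are linearly interpolated between the surrounding concentrations. Abbreviation: GI50, concentration required for 50% inhibition of growth.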 Activity calls are given as the source filed them. No stated cut-off is given here; in the data, active = GI50 up to about 1.1 µM and inactive = higher.

Key:
Test in all cases: growth of human tumour cells (NCI), 48 h
UACC-257 = tested on: UACC-257
SF-268 = tested on: SF-268
SK-MEL-28 = tested on: SK-MEL-28
786-0 = tested on: 786-0
OVCAR-5 = tested on: OVCAR-5
SN12C = tested on: SN12C
CAKI-1 = tested on: CAKI-1
NCI/ADR-RES = tested on: NCI/ADR-RES
HCT-116 = tested on: HCT-116
CCRF-CEM = tested on: CCRF-CEM
SNB-19 = tested on: SNB-19
Hs-578T = tested on: Hs-578T
K562 = tested on: K562
SNB-75 = tested on: SNB-75
NCI-H23 = tested on: NCI-H23
SW-620 = tested on: SW-620
TK-10 = tested on: TK-10
OVCAR-8 = tested on: OVCAR-8
OVCAR-3 = tested on: OVCAR-3
HOP-92 = tested on: HOP-92
T47D = tested on: T47D
SK-MEL-5 = tested on: SK-MEL-5
SK-OV-3 = tested on: SK-OV-3
DU-145 = tested on: DU-145
NCI-H522 = tested on: NCI-H522
SF-295 = tested on: SF-295
BT-549 = tested on: BT-549
EKVX = tested on: EKVX
COLO 205 = tested on: COLO 205
SR = tested on: SR
MDA-MB-231 = tested on: MDA-MB-231
UO-31 = tested on: UO-31
RXF 393 = tested on: RXF 393
LOX IMVI = tested on: LOX IMVI
MDA-N = tested on: MDA-N
U-251 = tested on: U-251
OVCAR-4 = tested on: OVCAR-4
HCC 2998 = tested on: HCC 2998
IGROV-1 = tested on: IGROV-1
PC-3 = tested on: PC-3
ACHN = tested on: ACHN
MCF7 = tested on: MCF7
MOLT-4 = tested on: MOLT-4
M14 = tested on: M14
A549 = tested on: A549
NCI-H460 = tested on: NCI-H460
Malme-3M = tested on: Malme-3M
MDA-MB-435 = tested on: MDA-MB-435
HOP-62 = tested on: HOP-62
KM12 = tested on: KM12
SK-MEL-2 = tested on: SK-MEL-2
RPMI-8226 = tested on: RPMI-8226
HCT-15 = tested on: HCT-15
UACC-62 = tested on: UACC-62
A498 = tested on: A498
HL-60 = tested on: HL-60
M19-MEL = tested on: M19-MEL
SF-539 = tested on: SF-539
SNB-78 = tested on: SNB-78
LXFL 529 = tested on: LXFL 529
DMS-114 = tested on: DMS-114
DLD-1 = tested on: DLD-1
HOP-18 = tested on: HOP-18
HT-29 = tested on: HT-29
DMS-273 = tested on: DMS-273
KM-20L2 = tested on: KM-20L2
NCI-H226 = tested on: NCI-H226
XF498 = tested on: XF498

Measured: GI50

O=C1Cc2c([nH]c3ccc(C(F)(F)F)cc23)-c2cc(Br)ccc2N1
> 100 µM: HCT-15
inactive: UACC-257 = > 100 µM | SF-268 = > 100 µM | SK-MEL-28 = > 100 µM | 786-0 = > 100 µM | OVCAR-5 = > 100 µM | SN12C > 100 µM | CAKI-1 = > 100 µM | NCI/ADR-RES > 100 µM | HCT-116 = > 100 µM | CCRF-CEM > 100 µM | SNB-19 = > 100 µM | Hs-578T > 100 µM | K562 = > 100 µM | SNB-75 = > 100 µM | NCI-H23 = > 100 µM | SW-620 = > 100 µM | TK-10 = > 100 µM | OVCAR-8 = > 100 µM | OVCAR-3 = > 100 µM | HOP-92 = > 100 µM | T47D > 100 µM | SK-MEL-5 = > 100 µM | SK-OV-3 = > 100 µM | DU-145 = > 100 µM | NCI-H522 = > 100 µM | SF-295 = > 100 µM | BT-549 = > 100 µM | EKVX > 100 µM | COLO 205 = > 100 µM | SR > 100 µM | MDA-MB-231 = > 100 µM | UO-31 = > 100 µM | RXF 393 = > 100 µM | LOX IMVI > 100 µM | MDA-N > 100 µM | U-251 = > 100 µM | OVCAR-4 = > 100 µM | HCC 2998 = > 100 µM | IGROV-1 = > 100 µM | PC-3 = > 100 µM | ACHN > 100 µM | MCF7 = > 100 µM | MOLT-4 = > 100 µM | M14 = > 100 µM | A549 = > 100 µM | NCI-H460 = > 100 µM | Malme-3M > 100 µM | MDA-MB-435 = > 100 µM | HOP-62 = > 100 µM | KM12 = > 100 µM | SK-MEL-2 = > 100 µM | RPMI-8226 = > 100 µM | UACC-62 = > 100 µM | A498 = > 100 µM

CCOC(=O)NC1CCc2cc(OC)c(OC)c(OC)c2-c2ccc(OC)c(=O)cc21 (stereo not drawn)
active: UACC-257 = 0.0368 µM | HL-60 = 0.0192 µM | SF-268 = 0.0237 µM | M19-MEL < 0.01 µM | 786-0 = 0.0245 µM | SF-539 = 0.0202 µM | SN12C 0.0259 µM | SNB-78 = < 0.01 µM | CAKI-1 = 0.0318 µM | LXFL 529 = 0.0101 µM | NCI/ADR-RES 0.259 µM | HCT-116 = 0.022 µM | CCRF-CEM 0.0311 µM | SNB-19 = 0.0118 µM | Hs-578T < 0.01 µM | K562 = 0.0208 µM | SNB-75 = 0.0249 µM | DMS-114 = 0.0108 µM | NCI-H23 = 0.02 µM | SW-620 = 0.0212 µM | OVCAR-8 = 0.0244 µM | OVCAR-3 = 0.0198 µM | HOP-92 = 0.0192 µM | DLD-1 = 0.011 µM | SK-MEL-5 = 0.0161 µM | SK-OV-3 = 0.104 µM | DU-145 = 0.0454 µM | NCI-H522 = 0.018 µM | HT-29 = 0.0187 µM | SF-295 = < 0.01 µM | BT-549 = < 0.01 µM | COLO 205 = 0.0194 µM | DMS-273 = < 0.01 µM | SR 0.0345 µM | MDA-MB-231 = 0.0371 µM | UO-31 = 0.568 µM | RXF 393 = 0.0236 µM | LOX IMVI 0.0256 µM | MDA-N 0.0228 µM | U-251 = 0.0206 µM | HCC 2998 = 0.0255 µM | IGROV-1 = 0.0262 µM | PC-3 = 0.0458 µM | ACHN 0.0395 µM | KM-20L2 = < 0.01 µM | MCF7 = 0.0262 µM | MOLT-4 = 0.0327 µM | M14 = 0.0195 µM | A549 = 0.0259 µM | NCI-H226 = 0.0935 µM | NCI-H460 = 0.0213 µM | Malme-3M 0.0275 µM | MDA-MB-435 = 0.0226 µM | HOP-62 = 0.0296 µM | KM12 = 0.0161 µM | SK-MEL-2 = 0.0195 µM | RPMI-8226 = 0.118 µM | UACC-62 = 0.0153 µM | A498 = 0.0296 µM | XF498 = 0.0314 µM
inactive: SK-MEL-28 = 1.36 µM | OVCAR-5 = 1.16 µM | TK-10 = 1.14 µM | HOP-18 = 41.1 µM | T47D > 100 µM | EKVX 15.1 µM | OVCAR-4 = 9.59 µM
0.0251 µM: HCT-15
